Each structure is given as a SMILES string. Among all 48,000 compounds or so, about 550 (1.1%) were called active. About 4% were inconclusive and are not listed. No stated cut-off is given here; in the data, active means potency below about 15 µM; inconclusive means mostly about 16 µM to 33 µM; inactive means weaker than that. The list shows a part of the results.
Potency means the concentration at half of the fitted maximal effect.

Chain of UniProt P04062 (P04062 whole entry, looked up): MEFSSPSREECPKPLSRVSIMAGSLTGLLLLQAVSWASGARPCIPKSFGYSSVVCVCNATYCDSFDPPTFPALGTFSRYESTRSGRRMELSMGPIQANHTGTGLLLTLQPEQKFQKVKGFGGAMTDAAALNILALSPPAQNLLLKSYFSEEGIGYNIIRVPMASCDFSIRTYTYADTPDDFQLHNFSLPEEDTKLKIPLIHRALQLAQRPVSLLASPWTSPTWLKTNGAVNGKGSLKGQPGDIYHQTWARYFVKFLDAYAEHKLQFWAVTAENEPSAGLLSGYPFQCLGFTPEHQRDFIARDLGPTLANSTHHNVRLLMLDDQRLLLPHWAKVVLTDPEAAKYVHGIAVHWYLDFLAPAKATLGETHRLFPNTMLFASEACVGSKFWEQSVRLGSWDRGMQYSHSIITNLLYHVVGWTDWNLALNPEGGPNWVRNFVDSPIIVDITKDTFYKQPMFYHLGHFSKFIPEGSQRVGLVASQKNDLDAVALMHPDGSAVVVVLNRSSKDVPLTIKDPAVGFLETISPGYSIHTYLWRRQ

The assay deals with Lysosomal acid glucosylceramidase (Homo sapiens) (UniProt P04062). The assay can be described thus: Glucocerebrosidase.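 Further: the screen sought inhibitors.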 The settings on record: purified enzyme, resorufin glucoside fluorescence (screen aimed at inhibitors), 20 min. In outline:
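Wild-type enzyme at 0.2 nM final in 50mM citric acid/KH2PO4, 10mM sodium taurocholate, 0.01% tween-20, pH 5.9, with resorufin beta-D-glucopyranoside at 30 uM final. Compounds titrated, 20 min at RT, red fluorescence read; AC50 from titration.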
As to `COc1cc(CNc2ncn[nH]2)cc(Br)c1OC`, the Potency is inactive: > 76.9 µM.

In the case of `CCCCNC(=O)Nc1ccccc1C(=O)NCc1ccco1`, the Potency is inactive: > 76.9 µM.

On to `CCCCCn1c(=O)[nH]c2cc(C(=O)NCCCN(CC)CC)ccc2c1=O`, for which the Potency is inactive: > 76.9 µM.

Take `O=C1c2ccccc2C(=O)N1Cc1nc(-c2cccnc2)no1`: the Potency is inactive: > 76.9 µM.

For the molecule `CCOC(=O)C1CCN(C(C(=O)NC2CCCCC2)c2ccc(OC)cc2)CC1` (stereo unspecified), the Potency is inactive: > 76.9 µM.

Turning to `CC(=O)N1CCN(c2ccc(NCc3ccc(C)cc3)cc2)CC1`, the Potency was active: 11.6 µM.

As for `O=C(Cn1ccsc1=NC(=O)c1ccco1)c1ccccc1`, the Potency was inactive: > 76.9 µM.

Turning to `CCOC(=O)C1CCCN(C(=O)CSc2nccn2C)C1` (stereo unspecified), the Potency was inactive: > 76.9 µM.

For `CCc1c(C)nc(N)n2c(SCC(=O)N3CCN(c4ccccc4OC)CC3)nnc12`, the Potency was inactive: > 76.9 µM.

With `CCOC(=O)Cc1csc(NC(=O)c2c(-c3c(F)cccc3Cl)noc2C)n1`, the Potency is inactive: > 76.9 µM.

Consider `COc1cccc(CC(C(=O)Nc2cc(C)ccc2C)c2nn[nH]n2)c1OC` (stereo unspecified), for which the Potency was inactive: > 76.9 µM.

Turning to `CCN(CC)CCN1C(=O)c2oc3ccccc3c(=O)c2C1c1cccc(Br)c1` (stereo unspecified), the Potency was inactive: > 76.9 µM.

In the case of `Cc1ccc(Cn2nnc3c(=O)n(CC(=O)N4CCCCC4)cnc32)cc1`, the Potency was inactive: > 76.9 µM.

For `CCOC(=O)c1sc2cccc(F)c2c1N`, the Potency is inactive: > 76.9 µM.

For the molecule `Cc1cc(C)cc(N2C(=O)C3C4C=CC(C4)C3C2=O)c1` (stereo unspecified), the Potency was inactive: > 76.9 µM.

In the case of `COc1ccccc1/C=C/CN1CC(C)OC(C)C1` (stereo unspecified), the Potency was inactive: > 76.9 µM.

Take `Cc1cc(C2C(=O)CC(=O)CC2c2ccccc2)on1` (stereo unspecified): the Potency is inactive: > 76.9 µM.

For `Cc1c(NC(=O)c2cc(-c3ccc4c(c3)OCO4)on2)c(=O)n(-c2ccccc2)n1C`, the Potency was inactive: > 76.9 µM.

Take `Cc1ccc(-c2nnc3sc(C4COc5ccccc5O4)nn23)cc1` (stereo unspecified): the Potency is inactive: > 76.9 µM.

Regarding `CCOc1ccccc1N(C(=O)CNC(=O)c1ccco1)C(C(=O)NC(C)(C)C)c1ccncc1` (stereo unspecified), the Potency was inactive: > 76.9 µM.

On to `O=C1C2CCCN2C(c2cccs2)N1c1ccc(Cl)cc1` (stereo unspecified), for which the Potency is inactive: > 76.9 µM.

As for `CCOCC(=O)Nc1ccc(S(=O)(=O)N2CCOCC2)cc1`, the Potency was inactive: > 76.9 µM.

With `Cc1cccc(NC(=O)c2ccc(NS(=O)(=O)c3c(C)noc3C)cc2)c1`, the Potency is active: 11.7 µM.

As for `O=C(Nc1ccccc1F)NC1CCN(Cc2nnnn2Cc2ccc(F)cc2)CC1`, the Potency was inactive: > 76.9 µM.

For the molecule `Cc1ccc(S(=O)(=O)N2CCSC2c2ccco2)cc1` (stereo unspecified), the Potency was inactive: > 76.9 µM.

In the case of `CCOC(=O)N1CCN(C(=O)c2cc3c(=O)[nH]c4ccccc4c3s2)CC1`, the Potency was inactive: > 76.9 µM.

Take `Cc1cccc(C)c1NC(=O)CCCSc1nnc(-c2ccco2)o1`: the Potency is inactive: > 76.9 µM.

Take `CCc1nc(N2CCCC(C)C2)c2oc3ccccc3c2n1` (stereo unspecified): the Potency is inactive: > 76.9 µM.

With `Clc1ccc(-c2nnc3sc(-c4ccco4)nn23)c(Cl)c1`, the Potency was inactive: > 76.9 µM.

Regarding `O=C(CCS(=O)(=O)Cc1ccccc1)NC1CCCCC1`, the Potency was inactive: > 76.9 µM.

In the case of `COc1ccc(NC(=O)CN2CCN(c3ccc(F)cc3)CC2)cc1Cl`, the Potency was inactive: > 76.9 µM.

Turning to `CC(=O)c1c(C)oc2ccc(NS(=O)(=O)c3ccc(O)c(C(=O)O)c3)cc12`, the Potency was inactive: > 76.9 µM.

In the case of `Cc1cc(=O)oc2c(CN(C)Cc3ccccc3)c(O)ccc12`, the Potency is inactive: > 76.9 µM.

On to `CCOC(=O)Cc1csc(NC(=O)CSc2nnc(C)n2C)n1`, for which the Potency was inactive: > 76.9 µM.

Take `COCCn1nnnc1C(c1ccccc1)N1CCN(Cc2ccc3c(c2)OCO3)CC1` (stereo unspecified): the Potency was inactive: > 76.9 µM.

Regarding `CCCCNc1cc(C)nc(NCc2ccccc2)n1`, the Potency is active: 6.26 µM.

Take `CCC1(c2ccc(F)cc2)NC(=O)N(CC(=O)c2ccc[nH]2)C1=O` (stereo unspecified): the Potency was inactive: > 76.9 µM.

On to `O=C(Nc1ccc2c(c1)OCO2)c1cnn2c1NC(c1ccco1)CC2C(F)(F)F` (stereo unspecified), for which the Potency was inactive: > 76.9 µM.

For `COc1ccc(CCNC(=O)C2CC(=O)N(C3CCCC3)C2)cc1OC` (stereo unspecified), the Potency was inactive: > 76.9 µM.

Turning to `NC(=O)CSc1nnc(C2CC2)n1Cc1ccccc1`, the Potency is inactive: > 76.9 µM.

Turning to `COc1ccc(-c2cc(=O)oc3cc(OCc4nn[nH]n4)ccc23)cc1`, the Potency was inactive: > 76.9 µM.

Regarding `O=C1CCCN1c1ccc(S(=O)(=O)Nc2ccc3c(c2)OCCO3)cc1`, the Potency was inactive: > 76.9 µM.

Consider `CCCc1cc(=O)n2[nH]c(NCc3ccccc3F)nc2n1`, for which the Potency was inactive: > 76.9 µM.

For `Cc1cc(C)n(C(=O)Cc2cn3ccsc3n2)n1`, the Potency was inactive: > 76.9 µM.

For `N#CC1=C(N)C(C#N)(C#N)[C@H](c2ccncc2)[C@H]2CC3(CC=C12)OCCO3`, the Potency was inactive: > 76.9 µM.

Regarding `COC(=O)c1ccccc1NC(=O)c1nc2nc(C)cc(C(F)F)n2n1`, the Potency is inactive: > 76.9 µM.

Turning to `O=C(NCCCN1CCCCC1)c1ccc2c(c1)NC(=O)C(N1CCCCC1)S2` (stereo unspecified), the Potency was inactive: > 76.9 µM.

Turning to `O=C1CCC(=O)N1OCCCOc1ccc2c(c1)CCC2`, the Potency is inactive: > 76.9 µM.

`CCCN1CCN(CCCNC(=O)Cn2nc(-c3ccc(Cl)cc3)ccc2=O)CC1`: the Potency was inactive: > 76.9 µM.

As to `COc1ccc(-n2c(SC3CCOC3=O)nc3ccccc32)cc1` (stereo unspecified), the Potency is inactive: > 76.9 µM.

In the case of `CC(=O)Nc1cccc(OCC(=O)Nc2ccccc2)c1`, the Potency is inactive: > 76.9 µM.

Consider `CN(Cc1ccccc1)c1ncnc2c1cnn2-c1ccccc1`, for which the Potency was inactive: > 76.9 µM.

Consider `CC(=O)Oc1ccc2c(c1)c(C(C)=O)c(C)n2C`, for which the Potency is inactive: > 76.9 µM.

Take `COc1ccccc1-c1nnc2sc(-c3cc4ccccc4o3)nn12`: the Potency is inactive: > 76.9 µM.

Regarding `Cc1cc(O)c(-c2cc(C(=O)NCc3ccc4c(c3)OCO4)[nH]n2)cc1C`, the Potency is inactive: > 76.9 µM.

For `CC(C)(C)c1ccccc1NC(=O)c1cccnc1`, the Potency is inactive: > 76.9 µM.

For `O=C(CCCCn1c(=O)[nH]c2ccsc2c1=O)NCC1CCCO1` (stereo unspecified), the Potency is inactive: > 76.9 µM.

On to `CC1CCCCN1C(=O)CSc1nnc(-c2c[nH]c3ccccc23)o1` (stereo unspecified), for which the Potency was inactive: > 76.9 µM.

Turning to `Cc1ccc(C)c(NS(=O)(=O)c2cc(C(N)=O)ccc2C)c1`, the Potency is inactive: > 76.9 µM.

As to `O=C(OCC(=O)N1CCc2ccccc21)c1cccnc1`, the Potency was inactive: > 76.9 µM.

With `COCCn1c(SCC(=O)c2ccc(CNC(C)=O)o2)nc2ccccc2c1=O`, the Potency was inactive: > 76.9 µM.

Turning to `COC(=O)c1[nH]c2ccc(F)cc2c1NC(=O)CCN1CCN(Cc2ccc3c(c2)OCO3)CC1`, the Potency is inactive: > 76.9 µM.

As to `CCn1c(=O)c(C)nn2c3ccccc3nc12`, the Potency was inactive: > 76.9 µM.

With `CCC(C(=O)NC1CCCC1)N(C(=O)Cn1nnc(-c2ccc(C)o2)n1)C(C)(C)C` (stereo unspecified), the Potency was inactive: > 76.9 µM.

Consider `COc1cccc(NC(=O)c2ccccc2NS(C)(=O)=O)c1`, for which the Potency is inactive: > 76.9 µM.

On to `COc1cc(CNC2CCC(C)C2)cc(OC)c1` (stereo unspecified), for which the Potency was inactive: > 76.9 µM.

With `CCCCOC(=O)C(C#N)c1nc2ccccc2nc1N1CCOCC1` (stereo unspecified), the Potency was inactive: > 76.9 µM.

As for `CNc1nc(C)c(C(=O)OCc2ccccc2)s1`, the Potency is inactive: > 76.9 µM.

Take `COC(=O)c1ccc(CNC(=O)CNc2cc(C(F)(F)F)ccc2N2CCOCC2)cc1`: the Potency was inactive: > 76.9 µM.

Regarding `CCN(CC(=O)O)S(=O)(=O)c1cc(Cl)ccc1Cl`, the Potency is inactive: > 76.9 µM.

On to `O=C(CN1C(=O)C2CC=C(Cl)CC2C1=O)Nc1ccc(C(=O)O)cc1` (stereo unspecified), for which the Potency is inactive: > 76.9 µM.

Turning to `CCCc1nnc(NC(=O)CCC(=O)Nc2ccc(F)cc2)s1`, the Potency was inactive: > 76.9 µM.

`CCOC(=O)c1ccccc1NC(=O)Nc1ccc(OC)c(OC)c1`: the Potency was inactive: > 76.9 µM.

For the molecule `COC(=O)c1[nH]c2ccc(Cl)cc2c1NC(=O)CCN1CCOCC1`, the Potency was inactive: > 76.9 µM.

As to `CC(=O)NC1C(=O)Nc2c1cccc2C(F)(F)F` (stereo unspecified), the Potency was inactive: > 76.9 µM.

In the case of `CCC(C(=O)NC1CCCCC1)N(CC1CCCO1)C(=O)CNS(=O)(=O)c1ccc(OC)cc1` (stereo unspecified), the Potency is inactive: > 76.9 µM.

For the molecule `CCOC(=O)Cn1cnc2c(cnn2-c2ccc(Cl)cc2)c1=O`, the Potency was inactive: > 76.9 µM.

For the molecule `CCC1(C)Cc2ccccc2-c2nc3n(c(=O)c21)CCCCC3` (stereo unspecified), the Potency was inactive: > 76.9 µM.

Consider `COC(=O)C1=C(C(C)=O)C(c2ccc(C)cc2)n2nnnc2N1` (stereo unspecified), for which the Potency is inactive: > 76.9 µM.

In the case of `O=C(Cc1ccc(F)cc1)Nc1c2c(nn1-c1cccc(Cl)c1)CS(=O)C2` (stereo unspecified), the Potency was inactive: > 76.9 µM.

Turning to `CCCc1cc(=O)[nH]c(SCC(=O)Nc2nonc2N)n1`, the Potency is inactive: > 76.9 µM.

For the molecule `Cc1nn(C)c(C)c1NC(=O)CSc1nc(Cc2ccccc2)nc2c1cnn2-c1ccccc1`, the Potency was inactive: > 76.9 µM.

For the molecule `CC(C)n1c(SCC(=O)c2ccc3c(c2)OCCO3)nc2c1c(=O)n(C)c(=O)n2C`, the Potency is inactive: > 76.9 µM.

Regarding `CCC1(C)Cc2c(sc3nc4n(c(=O)c23)CCCS4)CO1` (stereo unspecified), the Potency was inactive: > 76.9 µM.

On to `C=CCn1c(-c2ccoc2)n[nH]c1=S`, for which the Potency is inactive: > 76.9 µM.

For the molecule `O=C(C1CCC1)N1CCc2cc(S(=O)(=O)NC3CCCC3)ccc21`, the Potency was inactive: > 76.9 µM.

In the case of `COc1ccc(C(CC(=O)O)NC(=O)COc2ccccc2OC)cc1OC` (stereo unspecified), the Potency was inactive: > 76.9 µM.

As to `O=C(NC1CCS(=O)(=O)C1)c1ccc(S(=O)(=O)NCC2CCCO2)cc1` (stereo unspecified), the Potency is inactive: > 76.9 µM.

As to `CN1CCN(/C=N/c2c(C#N)cnn2-c2ccccc2)CC1`, the Potency was inactive: > 76.9 µM.

As for `COC(=O)C1CCN(C(=O)C(C)Oc2ccc(Cl)cc2Cl)CC1` (stereo unspecified), the Potency is inactive: > 76.9 µM.

With `CCOc1ccc(-c2[nH]nc3c2C(c2ccc4c(c2)OCO4)C(C#N)=C(N)O3)cc1OC` (stereo unspecified), the Potency was inactive: > 76.9 µM.

Source of the values: PubChem BioAssay AID360 (National Center for Advancing Translational Sciences (NCATS), 2006).
